# Laboratory results taken from the supplement of paper PMC8728848.
# Some of the results follow.
# Experiments:
# Assay in all cases: glycan array binding signal (z-score within array); higher = stronger binding
# Conditions in all cases: glycan notation: IUPAC condensed, linker removed
# Fuc(a1-2)Gal = biological target: Fuc(a1-2)Gal
# In short: (§1)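 Glycan array binding is given as a within-array Z-score, which can be read as non-binding when negative. The arrays, 3228 of them, came from the Consortium for Functional Glycomics database and were retained only where the protein sequence was available. Z-scores were averaged across arrays of the same protein sequence at different concentrations or buffers and across linkers.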
# Fuc(a1-2)Gal(b1-3)GalNAc = biological target: Fuc(a1-2)Gal(b1-3)GalNAc
# In short: as §1
# [1] = biological target: Fuc(a1-2)Gal(b1-3)GalNAc(a1-3)[Fuc(a1-2)]Gal(b1-4)Glc
# In short: as §1
# [2] = biological target: Fuc(a1-2)Gal(b1-3)GalNAc(a1-3)[Fuc(a1-2)]Gal(b1-4)GlcNAc
# In short: as §1
# [3] = biological target: Fuc(a1-2)Gal(b1-3)GalNAc(b1-3)Gal
# In short: as §1
# [4] = biological target: Fuc(a1-2)Gal(b1-3)GalNAc(b1-3)Gal(a1-4)Gal(b1-4)Glc
# In short: as §1
# [5] = biological target: Fuc(a1-2)Gal(b1-3)GalNAc(b1-4)[Neu5Ac(a2-3)]Gal(b1-4)Glc
# In short: as §1
# Fuc(a1-2)Gal(b1-3)GlcNAc = biological target: Fuc(a1-2)Gal(b1-3)GlcNAc
# In short: as §1
# [6] = biological target: Fuc(a1-2)Gal(b1-3)GlcNAc(b1-2)Man(a1-3)[Fuc(a1-2)Gal(b1-3)GlcNAc(b1-2)Man(a1-6)]Man(b1-4)GlcNAc(b1-4)GlcNAc
# In short: as §1
# [7] = biological target: Fuc(a1-2)Gal(b1-3)GlcNAc(b1-2)Man(a1-3)[Fuc(a1-2)Gal(b1-3)GlcNAc(b1-2)Man(a1-6)]Man(b1-4)GlcNAc(b1-4)[Fuc(a1-6)]GlcNAc
# In short: as §1
# [8] = biological target: Fuc(a1-2)Gal(b1-3)GlcNAc(b1-3)Gal(b1-4)Glc
# In short: as §1
# [9] = biological target: Fuc(a1-2)Gal(b1-3)GlcNAc(b1-3)GalNAc
# In short: as §1
# [10] = biological target: Fuc(a1-2)Gal(b1-3)GlcNAc(b1-3)[Fuc(a1-2)Gal(b1-3)GlcNAc(b1-6)]GalNAc
# In short: as §1
# [11] = biological target: Fuc(a1-2)Gal(b1-3)GlcNAc(b1-3)[Gal(b1-4)GlcNAc(b1-6)]Gal(b1-4)Glc
# In short: as §1
# [12] = biological target: Fuc(a1-2)Gal(b1-3)GlcNAc(b1-3)[Neu5Ac(a2-6)Gal(b1-4)GlcNAc(b1-6)]Gal(b1-4)Glc
# In short: as §1
# [13] = biological target: Fuc(a1-2)Gal(b1-3)GlcNAc6S
# In short: as §1
# [14] = biological target: Fuc(a1-2)Gal(b1-3)[Fuc(a1-4)]GlcNAc
# In short: as §1
# [15] = biological target: Fuc(a1-2)Gal(b1-3)[Fuc(a1-4)]GlcNAc(b1-2)Man(a1-3)[Fuc(a1-2)Gal(b1-3)[Fuc(a1-4)]GlcNAc(b1-2)Man(a1-3)]Man(b1-4)GlcNAc(b1-4)GlcNAc
# In short: as §1
# [16] = biological target: Fuc(a1-2)Gal(b1-3)[Fuc(a1-4)]GlcNAc(b1-2)Man(a1-3)[Fuc(a1-2)Gal(b1-3)[Fuc(a1-4)]GlcNAc(b1-2)Man(a1-6)]Man(b1-4)GlcNAc(b1-4)[Fuc(a1-6)]GlcNAc(b1-4)[Fuc(a1-6)]GlcNAc
# In short: as §1
# [17] = biological target: Fuc(a1-2)Gal(b1-3)[Fuc(a1-4)]GlcNAc(b1-3)[Fuc(a1-3)[Gal(b1-4)]GlcNAc(b1-6)]Gal(b1-4)Glc
# In short: as §1
# [18] = biological target: Fuc(a1-2)Gal(b1-3)[Fuc(a1-4)]GlcNAc(b1-3)[Gal(b1-4)GlcNAc(b1-6)]Gal(b1-4)Glc
# In short: as §1
# Fuc(a1-2)Gal(b1-4)Glc = biological target: Fuc(a1-2)Gal(b1-4)Glc
# In short: as §1
# Fuc(a1-2)Gal(b1-4)Glc6S = biological target: Fuc(a1-2)Gal(b1-4)Glc6S
# In short: as §1
# Fuc(a1-2)Gal(b1-4)GlcNAc = biological target: Fuc(a1-2)Gal(b1-4)GlcNAc
# In short: as §1
# [19] = biological target: Fuc(a1-2)Gal(b1-4)GlcNAc(b1-2)Man
# In short: as §1
# [20] = biological target: Fuc(a1-2)Gal(b1-4)GlcNAc(b1-2)Man(a1-3)[Fuc(a1-2)Gal(b1-4)GlcNAc(b1-2)Man(a1-6)]Man(b1-4)GlcNAc(b1-4)GlcNAc
# In short: as §1
# [21] = biological target: Fuc(a1-2)Gal(b1-4)GlcNAc(b1-2)Man(a1-3)[Fuc(a1-2)Gal(b1-4)GlcNAc(b1-2)Man(a1-6)]Man(b1-4)GlcNAc(b1-4)[Fuc(a1-6)]GlcNAc
# In short: as §1
# [22] = biological target: Fuc(a1-2)Gal(b1-4)GlcNAc(b1-2)[Fuc(a1-2)Gal(b1-4)GlcNAc(b1-4)]Man(a1-3)[Fuc(a1-2)Gal(b1-4)GlcNAc(b1-2)Man(a1-6)]Man(b1-4)GlcNAc(b1-4)GlcNAc
# In short: as §1
# [23] = biological target: Fuc(a1-2)Gal(b1-4)GlcNAc(b1-3)Gal(b1-4)GlcNAc
# In short: as §1
# [24] = biological target: Fuc(a1-2)Gal(b1-4)GlcNAc(b1-3)Gal(b1-4)GlcNAc(b1-2)Man(a1-3)[Fuc(a1-2)Gal(b1-4)GlcNAc(b1-3)Gal(b1-4)GlcNAc(b1-2)Man(a1-6)]Man(b1-4)GlcNAc(b1-4)GlcNAc
# In short: as §1
binder,measurement,setting,value
OGAA (protein) MVQKESQATLEERESELSSNPAASAGASLEPPAAPAPGEDNPAGAGGAAVAGAAGGARRFLCGVVEGFYGRPWVMEQRKELFRRLQKWELNTYLYAPKDDYKHRMFWREMYSVEEAEQLMTLISAAREYEIEFIYAISPGLDITFSNPKEVSTLKRKLDQVSQFGCRSFALLFADIDHNMCAADKEVFSSFAHAQVSITNEIYQYLGEPETFLFCPTEYCGTFCYPNVSQSPYLRTVGEKLLPGIEVLWTGPKVVSKEIPVESIEEVSKIIKRAPVIWDNIHANDYDQKRLFLGPYKGRSTELIPRLKGVLTNPNCEFEANYVAIHTLATWYKSNMNGVRKDVVMTDSEDSTVSIQIKLENEGSDEDIETDVLYSPQMALKLALTEWLQEFGVPHQY,glycan array binding signal (z-score),Fuc(a1-2)Gal,-0.067
same,glycan array binding signal (z-score),Fuc(a1-2)Gal(b1-3)GalNAc,-0.064
same,glycan array binding signal (z-score),[1],-0.075
same,glycan array binding signal (z-score),[2],-0.085
same,glycan array binding signal (z-score),[3],-0.117
same,glycan array binding signal (z-score),[4],-0.109
same,glycan array binding signal (z-score),[5],-0.092
same,glycan array binding signal (z-score),Fuc(a1-2)Gal(b1-3)GlcNAc,-0.023
same,glycan array binding signal (z-score),[6],-0.104
same,glycan array binding signal (z-score),[7],0.026
same,glycan array binding signal (z-score),[8],-0.057
same,glycan array binding signal (z-score),[9],0.009
same,glycan array binding signal (z-score),[10],-0.11
same,glycan array binding signal (z-score),[11],-0.078
same,glycan array binding signal (z-score),[12],-0.099
same,glycan array binding signal (z-score),[13],-0.081
same,glycan array binding signal (z-score),[14],-0.076
same,glycan array binding signal (z-score),[15],0.285
same,glycan array binding signal (z-score),[16],0.251
same,glycan array binding signal (z-score),[17],-0.101
same,glycan array binding signal (z-score),[18],-0.127
same,glycan array binding signal (z-score),Fuc(a1-2)Gal(b1-4)Glc,-0.066
same,glycan array binding signal (z-score),Fuc(a1-2)Gal(b1-4)Glc6S,-0.077
same,glycan array binding signal (z-score),Fuc(a1-2)Gal(b1-4)GlcNAc,-0.108
same,glycan array binding signal (z-score),[19],-0.087
same,glycan array binding signal (z-score),[20],-0.049
same,glycan array binding signal (z-score),[21],0.206
same,glycan array binding signal (z-score),[22],-0.031
same,glycan array binding signal (z-score),[23],-0.086
same,glycan array binding signal (z-score),[24],0.006
